Assay [1] has as its system MDA-MB-468. The assay can be described thus: Cytotoxicity of TROP2-targeting conjugates. It counts as cell-based, human. The conditions noted are these: TROP2 high-expressing, HER2-negative or low-expressing. The method, then: (§1) A cytotoxicity assay was performed using a method similar as Example 2, TROP2 high-expressing tumor cells NCI-N87, MDA-MB-468, SK-BR-3, and MCF-7 to measure the effects of the TROP2-targeting conjugates DG202, DG302, DG402, DG502, DG602, DG702, DG802, DG902, DG1002 on tumor cell proliferation. The results are shown in Tables 6-1 and 6-2, wherein NCI-N87 and SK-BR-3 are HER2 high-expressing tumor cells, and MDA-MB-468 and MCF-7 are HER2-negative or HER2 low-expressing tumor cells.

Assay [2] has as its system NCI-N87. Kind of assay: Cytotoxicity of TROP2-targeting conjugates. It counts as cell-based, human. As to conditions: TROP2 high-expressing, HER2 high-expressing. The method, then: as §1
Assay [3] has as its system SK-BR-3. The assay can be described thus: Cytotoxicity of TROP2-targeting conjugates. It counts as cell-based, human. The conditions noted are these: TROP2 high-expressing, HER2 high-expressing. The method, then:
as §1

Assay [4] relates to MCF-7. The assay can be described thus: Cytotoxicity of TROP2-targeting conjugates. It counts as cell-based. As to conditions: TROP2 high-expressing, HER2-negative or low-expressing. As to the method: as §1
For assay [5], the system named is Human gastric cancer NCI-N87 tumor. Kind of assay: In vivo pharmacodynamic evaluation of DG1002. Details: species or system BALB/c nude mice. The conditions noted are these: FIG. 9. The method, then:
Experimental animals: SPF BALB/c nude mice (Shanghai Sippr-BK laboratory animal Co. Ltd., females, 6-8 weeks, weighing approximately 18-22 g, 30 in total.
Tumor cells: Human gastric cancer NCI—N87 tumor cells were cultured and then collected during the logarithmic growth phase. After digestion, they were collected and suspended in an appropriate amount of PBS, pH 7.4.
Experimental method: Each mouse was inoculated with NCI-N87 cells through subcutaneous injection in the right scapular region. The injection volume was 0.2 ml (containing 1 x 10^7 cells). Each animal in the control group was injected with 0.2 ml PBS, pH 7.4.
At each time point of measurement, the average tumor volume and standard error of the mean (SEM) of each group were used for statistical analysis, and one-way ANOVA was used for comparison of tumor volume among groups. The formula for calculating tumor volume is V = 0.5 a × b^2, wherein a and b are the long and short diameters of the tumor, respectively. All data were analyzed with SPSS 17 software. The standard for statistically significant was P <0.05.
The in vivo pharmacodynamic evaluation of DG1002 was carried out in accordance with the method described in Effect Example 3. The grouping method was as follows: experimental animals with a tumor sizing from 100 to 200 mm^3 are selected and then divided into the following groups, each with 6 animals: a control group which received physiological saline; DG1004 2.5 mg/kg group, 5 mg/kg group and 10 mg/kg group which received reference drug DG1004; DG1002 1 mg/kg group, 2 mg/kg group, and 4 mg/kg group which received the conjugate DG1002 of the present disclosure; and Ab2006410 mg/kg group which received antibody Ab0064.

The results in this text go back to patent US20230256108A1, “A DRUG CONJUGATE AND APPLICATIONS THEREOF” (GENEQUANTUM HEALTHCARE (SUZHOU) CO., LTD., priority 2019, published 2023).

Positions count from the first letter of the chain named.

B1: DG1002: Ab0064 (SEQ ID NO: 33,34), LU102, mc(ring open)-MMAF (conjugate)
light: DIQMTQSPSSLSASVGDRVTITCKASQGINNYLSWYQQKPGKAPKSLIYRANRLVSGVPSRFSGSGSGTDFTLTISSLQPEDFATYYCLQYDEFPLTFGGGTKVEIKRTVAAPSVFIFPPSDEQLKSGTASVVCLLNNFYPREAKVQWKVDNALQSGNSQESVTEQDSKDSTYSLSSTLTLSKADYEKHKVYACEVTHQGLSSPVTKSFNRGECGALPETGG
heavy: QVQLVQSGAEVKKPGSSVKVSCKASGYRFTDYVINWVRQAPGQGLEWMGQIYPGSDTFHYNQKFQGRATLTADKSTNTAYMELSSLRSEDTAVYYCARFFEGLAYWGQGTLVTVSS[human IgG1 constant region omitted here]
modifications: LU102 linker, mc(ring open)-MMAF payload; Ab0064 Light chain; Ab0064 Heavy chain
The term IC50 denotes the midpoint of a concentration-inhibition curve. A higher IC50 goes with a need for much substance. Consider B1, for which the IC50 turned out to be 0.034 nM in assay [1], 0.016 nM in assay [2], 0.019 nM in assay [3] and 0.03 nM in assay [4]. The entries for the “tumor growth inhibition compared with reference drug” value in assay [5] (DG1002 1 mg/kg), in assay [5] (DG1002 2 mg/kg) and in assay [5] (DG1002 4 mg/kg) were “close to DG1004 (2.5 mg/kg)”, “close to DG1004 (5 mg/kg)” and “close to DG1004 (10 mg/kg)”, respectively.

B2: DG802: Ab0062 (SEQ ID NO: 29,30), LU102, mc(ring open)-MMAF (conjugate)
light: B1 light with S56D
heavy: B1 heavy with T57A
modifications: LU102 linker, mc(ring open)-MMAF payload; Ab0062 Light chain; Ab0062 Heavy chain
In turn, B2 returned an IC50 in assay [2] of 0.021 nM.

B3: DG502: Ab0053 (SEQ ID NO: 23,24), LU102, mc(ring open)-MMAF (conjugate)
light: B1 light with S56D, F71Y
heavy: B1 heavy with T57S
modifications: LU102 linker, mc(ring open)-MMAF payload; Ab0053 Light chain; Ab0053 Heavy chain
With B3, in assay [2], the IC50 amounted to 0.027 nM.

B4: DG504: reference drug: Ab0053 (SEQ ID NO: 23,24), LU104' (ring open), DM1 (conjugate)
light: B1 light with S56D, F71Y
heavy: B1 heavy with T57S
modifications: LU104' (ring open) linker, DM1 payload; Ab0053 Light chain; Ab0053 Heavy chain
B4: the IC50 in assay [2] is 0.059 nM. This IC50 lies about 2.2-fold higher than the previous one.

B5: DG402: Ab0052 (SEQ ID NO: 21,22), LU102, mc(ring open)-MMAF (conjugate)
light: B1 light with S56D, T69Q, F71Y
heavy: B1 heavy with T57S
modifications: LU102 linker, mc(ring open)-MMAF payload; Ab0052 Light chain; Ab0052 Heavy chain
In turn, B5 showed an IC50 in assay [2] of 0.027 nM.

B6: DG604: reference drug: Ab0054 (SEQ ID NO: 25,26), LU104' (ring open), DM1 (conjugate)
light: B1 light with S56D
heavy: B1 heavy with T57S
modifications: LU104' (ring open) linker, DM1 payload; Ab0054 Light chain; Ab0054 Heavy chain
B6 gave an IC50 in assay [2] of 0.065 nM. This IC50 is about 2.4-fold higher than that of the molecule before.

B7: DG602: Ab0054 (SEQ ID NO: 25,26), LU102, mc(ring open)-MMAF (conjugate)
light: B1 light with S56D
heavy: B1 heavy with T57S
modifications: LU102 linker, mc(ring open)-MMAF payload; Ab0054 Light chain; Ab0054 Heavy chain
With B7, the IC50 in assay [1] was determined as 0.058 nM; in assay [2] it was 0.028 nM; in assay [3], 0.025 nM; in assay [4] it was 0.047 nM.

B8: DG702: Ab0061 (SEQ ID NO: 27,28), LU102, mc(ring open)-MMAF (conjugate)
light: B1 light with S56D
heavy: B1 heavy
modifications: LU102 linker, mc(ring open)-MMAF payload; Ab0061 Light chain; Ab0061 Heavy chain
In assay [2], B8 yielded an IC50 of 0.021 nM.
